# Some of the results follow. The list includes weakly bound sequences.
# Target: T1, MBP-FoxP3dN (UniProt Q99JB6)
# T1 sequence: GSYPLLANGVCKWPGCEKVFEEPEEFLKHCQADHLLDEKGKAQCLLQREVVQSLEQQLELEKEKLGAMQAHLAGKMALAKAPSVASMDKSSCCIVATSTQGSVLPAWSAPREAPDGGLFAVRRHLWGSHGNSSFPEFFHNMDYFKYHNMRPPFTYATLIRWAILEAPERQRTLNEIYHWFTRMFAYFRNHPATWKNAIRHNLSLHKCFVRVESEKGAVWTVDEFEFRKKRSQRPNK
# Experiment: PD-seq (MBP pull-down with sequencing)
# Details: 20 mM Tris-HCl pH 7.5, 100 mM NaCl, 1.5 mM MgCl2, 0.4 uM protein, 0.1 uM dsDNA library, 30 min, room temperature, amylose pull-down; high values mean tight binding; double strand, one strand shown
row,Sequence,binding signal (RPM ratio (pull-down/input))
1,GATGATTGTTCTCCCAGCTGATGAATTGATCCTGTCGAGTAAACAAATTTTCCTAATCTTTCTGTTCAAGCGCCATCTAC,0.304
2,GATGATTGTTCTCCCAGCTGATGAATTATACCTATCGAGTAAACAAATTTTCCTAATCTTTCTGTTCAAGCGCCATCTAC,0.557
3,GATGATTGTTCTCCCAGCTGATGAATTTCTCCAGTCGAGTAAACAAATTTTCCTAATCTTTCTGTTCAAGCGCCATCTAC,0.165
4,GATGATTGTTCTCCCAGCTGATGAATTTCGTGCCTCGAGTAAACAAATTTTCCTAATCTTTCTGTTCAAGCGCCATCTAC,0.931
5,GATGATTGTTCTCCCAGCTGATGAATTCACCCCCTCGAGTAAACAAATTTTCCTAATCTTTCTGTTCAAGCGCCATCTAC,0.272
6,GATGATTGTTCTCCCAGCTGATGAATTCCTTAATTCGAGTAAACAAATTTTCCTAATCTTTCTGTTCAAGCGCCATCTAC,0.24
7,GATGATTGTTCTCCCAGCTGATGAATTCACATGCTCGAGTAAACAAATTTTCCTAATCTTTCTGTTCAAGCGCCATCTAC,0.452
8,GATGATTGTTCTCCCAGCTGATGAATTGCCGCCATCGAGTAAACAAATTTTCCTAATCTTTCTGTTCAAGCGCCATCTAC,2.97
9,GATGATTGTTCTCCCAGCTGATGAATTCCCCGTATCGAGTAAACAAATTTTCCTAATCTTTCTGTTCAAGCGCCATCTAC,0.309
10,GATGATTGTTCTCCCAGCTGATGAATTGACCTCATCGAGTAAACAAATTTTCCTAATCTTTCTGTTCAAGCGCCATCTAC,0.354
11,GATGATTGTTCTCCCAGCTGATGAATTGCAAAGTTCGAGTAAACAAATTTTCCTAATCTTTCTGTTCAAGCGCCATCTAC,0.633
12,GATGATTGTTCTCCCAGCTGATGAATTCATCCACTCGAGTAAACAAATTTTCCTAATCTTTCTGTTCAAGCGCCATCTAC,0.414
13,GATGATTGTTCTCCCAGCTGATGAATTAGTGGCTTCGAGTAAACAAATTTTCCTAATCTTTCTGTTCAAGCGCCATCTAC,1.19
14,GATGATTGTTCTCCCAGCTGATGAATTTCCCTTTTCGAGTAAACAAATTTTCCTAATCTTTCTGTTCAAGCGCCATCTAC,0.236
15,GATGATTGTTCTCCCAGCTGATGAATTAACTTTGTCGAGTAAACAAATTTTCCTAATCTTTCTGTTCAAGCGCCATCTAC,0.607
16,GATGATTGTTCTCCCAGCTGATGAATTCTGGCGGTCGAGTAAACAAATTTTCCTAATCTTTCTGTTCAAGCGCCATCTAC,0.281
17,GATGATTGTTCTCCCAGCTGATGAATTGTAAGAGTCGAGTAAACAAATTTTCCTAATCTTTCTGTTCAAGCGCCATCTAC,0.313
18,GATGATTGTTCTCCCAGCTGATGAATTGCTGCATTCGAGTAAACAAATTTTCCTAATCTTTCTGTTCAAGCGCCATCTAC,6.8
19,GATGATTGTTCTCCCAGCTGATGAATTCACTCACTCGAGTAAACAAATTTTCCTAATCTTTCTGTTCAAGCGCCATCTAC,0.383
20,GATGATTGTTCTCCCAGCTGATGAATTTCATAAGTCGAGTAAACAAATTTTCCTAATCTTTCTGTTCAAGCGCCATCTAC,0.218

row,Sequence,binding signal (RPM ratio (pull-down/input))
1,GATGATTGTTCTCCCAGCTGATGAATTCTGATGATCGAGTAAACAAATTTTCCTAATCTTTCTGTTCAAGCGCCATCTAC,1.27
2,GATGATTGTTCTCCCAGCTGATGAATTTGGCCAGTCGAGTAAACAAATTTTCCTAATCTTTCTGTTCAAGCGCCATCTAC,1.41
3,GATGATTGTTCTCCCAGCTGATGAATTATCGCCTTCGAGTAAACAAATTTTCCTAATCTTTCTGTTCAAGCGCCATCTAC,2.9
4,GATGATTGTTCTCCCAGCTGATGAATTCGATTTATCGAGTAAACAAATTTTCCTAATCTTTCTGTTCAAGCGCCATCTAC,1.71
5,GATGATTGTTCTCCCAGCTGATGAATTTGAGATCTCGAGTAAACAAATTTTCCTAATCTTTCTGTTCAAGCGCCATCTAC,0.446
6,GATGATTGTTCTCCCAGCTGATGAATTCAACATATCGAGTAAACAAATTTTCCTAATCTTTCTGTTCAAGCGCCATCTAC,0.557
7,GATGATTGTTCTCCCAGCTGATGAATTTCTGCGATCGAGTAAACAAATTTTCCTAATCTTTCTGTTCAAGCGCCATCTAC,0.556
8,GATGATTGTTCTCCCAGCTGATGAATTTGAGATGTCGAGTAAACAAATTTTCCTAATCTTTCTGTTCAAGCGCCATCTAC,0.56
9,GATGATTGTTCTCCCAGCTGATGAATTCAGGGGCTCGAGTAAACAAATTTTCCTAATCTTTCTGTTCAAGCGCCATCTAC,0.323
10,GATGATTGTTCTCCCAGCTGATGAATTGAACCGATCGAGTAAACAAATTTTCCTAATCTTTCTGTTCAAGCGCCATCTAC,0.249
11,GATGATTGTTCTCCCAGCTGATGAATTGGACAGGTCGAGTAAACAAATTTTCCTAATCTTTCTGTTCAAGCGCCATCTAC,0.217
12,GATGATTGTTCTCCCAGCTGATGAATTTTTTTCGTCGAGTAAACAAATTTTCCTAATCTTTCTGTTCAAGCGCCATCTAC,0.345
13,GATGATTGTTCTCCCAGCTGATGAATTAAGTCACTCGAGTAAACAAATTTTCCTAATCTTTCTGTTCAAGCGCCATCTAC,1.03
14,GATGATTGTTCTCCCAGCTGATGAATTCATGTAGTCGAGTAAACAAATTTTCCTAATCTTTCTGTTCAAGCGCCATCTAC,0.756
15,GATGATTGTTCTCCCAGCTGATGAATTTCTTTTATCGAGTAAACAAATTTTCCTAATCTTTCTGTTCAAGCGCCATCTAC,0.545
16,GATGATTGTTCTCCCAGCTGATGAATTGGCAAATTCGAGTAAACAAATTTTCCTAATCTTTCTGTTCAAGCGCCATCTAC,0.349
17,GATGATTGTTCTCCCAGCTGATGAATTCCAGAGATCGAGTAAACAAATTTTCCTAATCTTTCTGTTCAAGCGCCATCTAC,0.223
18,GATGATTGTTCTCCCAGCTGATGAATTCCCCTGATCGAGTAAACAAATTTTCCTAATCTTTCTGTTCAAGCGCCATCTAC,0.207
19,GATGATTGTTCTCCCAGCTGATGAATTTTGATTCTCGAGTAAACAAATTTTCCTAATCTTTCTGTTCAAGCGCCATCTAC,1.11
20,GATGATTGTTCTCCCAGCTGATGAATTAATCGAATCGAGTAAACAAATTTTCCTAATCTTTCTGTTCAAGCGCCATCTAC,0.245

# Source: publication PMC12820563
